According to paper PMC12136788:
The list shows a part of the results.

T1: UNK ZnF1-3 (human, UniProt Q9C0B0 31-174)
T1 sequence: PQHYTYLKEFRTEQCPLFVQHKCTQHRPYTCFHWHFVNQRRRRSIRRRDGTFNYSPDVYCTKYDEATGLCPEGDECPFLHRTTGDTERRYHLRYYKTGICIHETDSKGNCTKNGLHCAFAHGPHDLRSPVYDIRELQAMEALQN

B1: chr9:111175386:111175387:+_ENSMUSG00000046785_ENSMUST00000060711|mus_mus|FALSE|FALSE (ssRNA)
RNA: GGGAGUUCUACAGUCCGACGAUCCUCAGUUAGUAGAGGCUGAAACUCCGGUCGCCUAACACCUCUGGUCUUAAUCAUAACUACCCAUUCAGAUAUGGUAUUUAUGAUCUGAUUAAUAUCAACAUCAUAAGAACUCAACAGUUCCAACAGAGGAUUGAGCAUCA
B2: chr2:47387792:47387793:-_ENSG00000143933_ENST00000272298|hu_hu|FALSE|FALSE (ssRNA)
RNA: GGGAGUUCUACAGUCCGACGAUCUUAGGACAAUGACAGUAAGAUAAGGGAAGAAAACAUGGAGGAAUGAAGUCCUAAUUACUAUACAUGCAUAUUUUUUUGACAGUAGGGAGAAACCUUUUACAGAUAAGUUACAAACAAAGACAACAGAGGAUUGAGCAUCA
B3: chr12:12974248:12974249:+_ENSG00000213782_ENST00000358007|hu_mus|FALSE|FALSE (ssRNA)
RNA: GGGAGUUCUACAGUCCGACGAUCCAGGGCCUCGAACUGCUCAGAGAUCUGAAAGGCCAACUCUCGAGUAGGGGUGAGGACCAGGGCGAACAGUCGCUGGGGCGUCUCCAGCAGGGCAUUCAGGAUGGGCAAAGCAAAGGCACCCAACAGAGGAUUGAGCAUCA
B4: chr9:78015909:78015910:+_ENSMUSG00000009828_ENSMUST00000044551|mus_hu|FALSE|FALSE (ssRNA)
RNA: GGGAGUUCUACAGUCCGACGAUCAAAUAACCCUCUAUCACAUAGCCUUAAAUUGCACCCCUGUUGCAAUACUGCAUUAAUAUUAUUACAUUUUUCAAAAUCUGUAGAAAAUAUUAUCUGGAACCCCAAAGGAAAAUCAAUUAACAACAGAGGAUUGAGCAUCA
B5: 133253450_133308401_1176_3pUTR_ENSMUSG00000026425_ENSMUST00000097588|mouse|control|control (ssRNA)
RNA: GGGAGUUCUACAGUCCGACGAUCUCGGCAUUGUACAUGUGAUAUGUCUUCAUGACCGAGUAAAGCUCGUUCAGGACUUUCAUCAAAUCAUCUUGGAGUUGCUGGCCAACUUCUUUACUCUUUUUAAAGAGUCUUCCUGAGUCCCAACAGAGGAUUGAGCAUCA
B6: chr10:121602103:121602104:-_ENSG00000197771_ENST00000369077|hu_hu|FALSE|FALSE (ssRNA)
RNA: GGGAGUUCUACAGUCCGACGAUCAAGGAACCCAAGAAGUUCUGCUCUGACUGGAGACAAUUCGGACAUGAAACUUGAAACAAAGGUUUUGCUCUCCUCUUUGUUAAGGCAGGCAGGCAAUAAUGGGUUGAUGUGUUGCAACUUCAACAGAGGAUUGAGCAUCA
B7: chr4:138453181:138453182:-_ENSG00000189184_ENST00000344876|hu_hu|motif|central (ssRNA)
RNA: GGGAGUUCUACAGUCCGACGAUCGUUCCUCAUAAAUCCUGUAUUUCAAAUUCUUGCCCAGUACAUCGUGGUUGAAAGAUACGGUCAGAAGUGCAAAAACAAACCUAAAGUGCAUUUUAGCAUUCAUUUGGUGCAUUGGUCAGUCAACAGAGGAUUGAGCAUCA
B8: chr2:117085000:117085001:+_ENSMUSG00000027349_ENSMUST00000028825|mus_hu|FALSE|FALSE (ssRNA)
RNA: GGGAGUUCUACAGUCCGACGAUCACGAUCUUUAAUAUCUCCUGAUAUGAGUACAGAAUAUGGACAUGCCAUUUCUUUUAAAAAGCCACUUAUCUCAAGCUGGAAGCUCUCUAGAUCAUCUCUUCCAGCAGACGUGAUACUUUCCAACAGAGGAUUGAGCAUCA
B9: chr4:95690885:95690886:+_ENSMUSG00000028572_ENSMUST00000156910|mus_mus|mus_mus_mus_hu_False|8_108 (ssRNA)
RNA: GGGAGUUCUACAGUCCGACGAUCUUUAUUUUUAGAAAAAUACCAUGCUAAAAUAUUUUCAAAGGCUUAUUUUAUUUUACCAGAAGUCACAGGCAAGCAGACACUACAAGAAUAUAUGAAAAUGAAACAACAGUGUAUAACUGUCAACAGAGGAUUGAGCAUCA
B10: chr8:95500983:95500984:-_ENSG00000164944_ENST00000437199|hu_hu|hu_hu_hu_mus_True|18_38 (ssRNA)
RNA: GGGAGUUCUACAGUCCGACGAUCAGAACACAUCUAUCGAGUAAAGGACCGUACAUGACGGCCUCUACCACUGCCUCCACUAACAAACUUUCCUCUCUGAGCCUCCAUGCCGCUAUUUUGCACUAGCCAGGACGGUCCCAGGCCCAACAGAGGAUUGAGCAUCA
B11: 38356352_38356472_726_CDS_ENSMUSG00000044864_ENSMUST00000156038|mouse|control|control (ssRNA)
RNA: GGGAGUUCUACAGUCCGACGAUCGCUCUUGAUGUGCAGCUGGUUCAGCGUCUCAGCCGUCUCCUUGGUGAGGUGCUGCCGCAGUGCCUCCUCUUGAUCCAGGCGGUGGAGGAUGUACUGCUGAACAUCCUUAACGAUAUAUGCCAACAGAGGAUUGAGCAUCA
B12: chr19:7501953:7501954:-_ENSMUSG00000024758_ENSMUST00000025667|mus_mus|motif|central (ssRNA)
RNA: GGGAGUUCUACAGUCCGACGAUCCGGAAGAAAUCCCACUCUUGCCCCAUACUAUUUAUUCAUAAGUUAAUCAUUAUUUCCGGACUUAAAAAUAAGGGCAAAAUUAUAAAUGGGAGCUGUAUACGAGUCCUUGGAACUGGAGAGCAACAGAGGAUUGAGCAUCA
B13: 96641269_96641389_1145_CDS_ENSG00000111145_ENST00000228741|human|control|control (ssRNA)
RNA: GGGAGUUCUACAGUCCGACGAUCUUUUUUGGCCUUUGGGGGAAGAGAUGGAGACUUGGUCUUGGAGCCCGAUGACAGGUUCAAGGGCUCCAGGGAAUCGGAGUCAUGGCAGGCGGCCUCCAGGAAGAGGCUUCUGUGUUCAGACAACAGAGGAUUGAGCAUCA
B14: 32247416_32247536_761_CDS_ENSG00000125967_ENST00000246190|human|control|control (ssRNA)
RNA: GGGAGUUCUACAGUCCGACGAUCGGAGGGUCCUCCCUUGUGGGGCCCUGGCCCCACGGCCCUCACCUUGCACUCGAGCUGGUCGAUGAGCUCCUGGAGGCGGUUCACCUGGAGCCGCCACUGCAUCUCGGCCUCUGAGCUGCGCAACAGAGGAUUGAGCAUCA
B15: 103549188_103549308_3251_CDS_ENSMUSG00000008730_ENSMUST00000118317|mouse|control|control (ssRNA)
RNA: GGGAGUUCUACAGUCCGACGAUCAAGGUUGAGUGGCUGCACCGCGCUGGCUCCCCCUCGCUGAGCCCGGUACCCCGUGGGAGUGAUACAGCAUCCAGAUGACUGCCCACUCACUGAGGCCACUGGCUUGGUCUUACUGCUAAGCAACAGAGGAUUGAGCAUCA
B16: chr7:19736620:19736621:-_ENSG00000105849_ENST00000222567|hu_mus|FALSE|FALSE (ssRNA)
RNA: GGGAGUUCUACAGUCCGACGAUCAAGAUGCUGGUUAUUUAUCUACCUGUACAUAUUAAAUUGCUGUCAUUCCUUAUGCUCUAUAUACCGUAGAUGAAGUCAAGAAACAUGGUUGCCAGAAUUUACUCCUUAUGAAACAUUAAGCAACAGAGGAUUGAGCAUCA
B17: chr18:34367003:34367004:-_ENSG00000134779_ENST00000590842|hu_hu|motif|central (ssRNA)
RNA: GGGAGUUCUACAGUCCGACGAUCCCUCAGCUCCCAUUGGAGGGGCUCAACAGCCAGUUUCCAGUGAACACAUUUUCUUCGGUUCAUUUUGAUAUUAUAAGUUAUCUUGGCCUGUGGGCUAAUGCCAUAGCUGGUGAAGGCAUACAACAGAGGAUUGAGCAUCA
B18: chr6:41757443:41757444:+_ENSG00000214736_ENST00000398881|hu_mus|hu_hu_hu_mus_False|28_98 (ssRNA)
RNA: GGGAGUUCUACAGUCCGACGAUCGAACCGUGCAGAGACCAGAGAAUAGCCGACACUGGGGGAUGGGGGGGCAGUGGGGGGGGGUUCAGGCAAGGAGAGGGAGUCAACCCAUCUGAACACUCAGGUAGGAUCUUGUGGUCACAGCAACAGAGGAUUGAGCAUCA
B19: 75144492_75145415_650_3pUTR_ENSMUSG00000021996_ENSMUST00000022573|mouse|control|control (ssRNA)
RNA: GGGAGUUCUACAGUCCGACGAUCAUUAGGAUGUCAAUCUGGGAACCCGAAUAGGCCUUCACGAGACAGGUCGCAUCGUAUGCCUUCCAUUUACUUUCAUCUGGUCCCAAAUAUCCACUAAAAGCUUUUUUGCCCCAAGAACACCAACAGAGGAUUGAGCAUCA
B20: chr22:19452774:19452775:-_ENSG00000070010_ENST00000399523|hu_hu|hu_hu_hu_mus_False|28_88 (ssRNA)
RNA: GGGAGUUCUACAGUCCGACGAUCCUUCUCAUUGUAGUUGAUAGCAAUCACAUCCCCAGUCGUCAGACAGGCGAAGUUUCUCAAUGCAUUUUCUAAUACCGCUUUAGGGUUGGUGAUAUCCAGGAAGUCUGGGCUCUGAGGCUGCAACAGAGGAUUGAGCAUCA
B21: chr4:115894766:115894767:+_ENSMUSG00000028698_ENSMUST00000030464|mus_hu|mus_mus_mus_hu_True|18_108 (ssRNA)
RNA: GGGAGUUCUACAGUCCGACGAUCUUCACACGGAAAUUGUACUUCGGGUUUUCCAACGGCCAGUACCAGUCCGGCCAAACUACCCGAACAGGGUCCUCCCCCUCUCUCCUACAGAACUAAAGCACCCGCCCCCGAACUUUCAAGCAACAGAGGAUUGAGCAUCA
B22: chr4:115894766:115894767:+_ENSMUSG00000028698_ENSMUST00000030464|mus_hu|mus_mus_mus_hu_True|18_78 (ssRNA)
RNA: GGGAGUUCUACAGUCCGACGAUCUUCCACACGGAAAUGUACUUCGGGUUUUCCAACGCCAGUACAAAGUCCGGCCAAACUACCCGAACAGGGUCCUCCCCCUCUCUCCUACAGAACUAAAGCACCCGCCCCCGAACUUUCAAGCAACAGAGGAUUGAGCAUCA

Target: T1, UNK ZnF1-3
Experiment: nsRBNS (natural sequence RNA bind-n-seq); RBNS binding buffer (assumed for nsRBNS): 25 mM Tris pH 7.5, 150 mM KCl, 3 mM MgCl2, 0.01% Triton X-100, 500 ug/ml BSA, 20 U/ml SUPERase-In, 4 C; UNK is unkempt and MSI1 is Musashi-1; names of the RNAs are library labels; protein concentration not given here; high values mean tight binding

| Binder | binding signal |
| --- | --- |
| B1 | 0.684 enrichment R |
| B2 | 2.13 enrichment R |
| B3 | 1.84 enrichment R |
| B4 | 1.47 enrichment R |
| B5 | 0.464 enrichment R |
| B6 | 1.22 enrichment R |
| B7 | 1.35 enrichment R |
| B8 | 0.583 enrichment R |
| B9 | 2.06 enrichment R |
| B10 | 1.04 enrichment R |
| B11 | 0.546 enrichment R |
| B12 | 1.41 enrichment R |
| B13 | 0.992 enrichment R |
| B14 | 0.701 enrichment R |
| B15 | 1.38 enrichment R |
| B16 | 0.845 enrichment R |
| B17 | 1.13 enrichment R |
| B18 | 2.6 enrichment R |
| B19 | 0.683 enrichment R |
| B20 | 0.837 enrichment R |
| B21 | 1.07 enrichment R |
| B22 | 1.01 enrichment R |
